From the RNAGym collection of RNA variant scans (doi:10.1093/nar/gkz1192) come the findings set out here.

B1: CPEB3 Ribozyme (parent)
chain: UAACAGGGGGCCACAGCAGAAGCGUUCACGUCGCAGCCCCUGUCAGAUUCUGGUGAAUCUGCGAAUUCUGCUGUAUAUCUC

Read counts are not given, so values of variants with three or more changes are uncertain.

Variants of B1 are the subject of this series. The series is described as follows: self-cleavage, relative activity (ratio to wild type); higher = more cleavage; in vitro, sequencing. An outline of the steps:
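For each CPEB3 ribozyme variant, relative activity is its cleaved/total read fraction divided by the unmutated ribozyme's. Barcoded error-prone PCR libraries were transcribed by T7 RNA polymerase (5 hours, 37°C) and held in DNase I for 15 min before an EDTA stop, with cleavage occurring throughout. Template-switching reverse transcription and Illumina sequencing were used to read the RNAs. A 5-read minimum applied, and results are the mean of three batches.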
Regarding UAACAGGGGGCCACAGCAGAAGCAUUCACGACGCAGCCCCUGUCAGAUUCUGGUGAAUCUGCGAGUUCUGCCGUAUAUCGC [G24A U31A A65G U72C U80G], the self-cleavage was 0.21.

As to UAACAGGGGGCCACAGCAGAAGCACUCACGUCGCAGCCACUGCCAGAUUCUGGAGAAUCUGCGUAUUCUGCUGUAUAUCAC [G24A U25C C39A U43C U54A A64U U80A], the self-cleavage stood at 0.08.

Consider UAACAGGGGGCCACAGCAGAAGCAUUCACGUCGCAGCCCCUGUCAGAUUCAGGUGAAUCUGCGAAUUCUGCAGUAUAUCUC [G24A U51A U72A], for which the self-cleavage is 0.15.

Take UAACAGGGGGCCACAGCAGAAGCAUUCACGUCGCAGCCCCUGUCAGAUUCUGGUGAAUCUGCGAAUUCUGCUGUAUUUCCC [G24A A77U U80C]: the self-cleavage was 0.33.

For UAACAGGGGGCCACAGCAGAAGCAUUCACGUCGCAGCACCUGUCAGAUUCUGGUGAAUCUGCGAACUCUGCCGUAUAUCUC [G24A C38A U66C U72C], the self-cleavage is 0.1.

On to UAACAGGGGGCCACAGCAGAAGCAUUCACGUCGCAGCCCCUGUCAGAUUCUGGUGAAUCUGCAAAUUCUGCUGUACAUCUC [G24A G63A U76C], for which the self-cleavage came to 0.34.

For the variant UAACAGGGGGCCACAGCAGAAGCAUUCACGCCGCAGCCCCUGCCAGAUUCUGGUGAAUCCGCGAAUUAUGCUGCAUAUCUC [G24A U31C U43C U60C C68A U74C], the self-cleavage came to 0.08.

UAACAGGGGGCCACAGCAGAAGCAUUCACGUCGAAGCCCCUGACAGAUUCUGGUGAAUCAGCGAAUUCAGCUGUAUACCUC [G24A C34A U43A U60A U69A U78C]: the self-cleavage is 0.08.

For UAACAGGGGGCCACAGCAGAAGCAUUCACGACGCAGCCCCUGUCAGAUUCUGGUGAAUCUGCGAAUUCUGCAGUACAUCUC [G24A U31A U72A U76C], the self-cleavage came out at 0.07.

For the variant UAACAGGGGGCCACAGCAGAAGCAUUCACGUCGCAGCCCCUGUCUGAUUCUGGUGAAUCUGCGGAUUCUGCUGUGUACCUC [G24A A45U A64G A75G U78C], the self-cleavage turned out to be 0.08.

As for UAACAGGGGGCCACAGCAGAAGCAUUCACGUGGCAGCCCCUGUCAGAAUCUGAUGAAUCUGCGAAUUCUGCUGUAUAUCUC [G24A C32G U48A G53A], the self-cleavage was 0.06.

With UAACAGGGGGCCACAGCAGAAGCAUUCGCGUCGCAGCCCCUGUCAGAUUCAGGUGAAUCUGCGAGUUCUGCUGUAUAUCUC [G24A A28G U51A A65G], the self-cleavage came to 0.36.

With UAACAGGGGGCCACAGCAGAAGCAUUCAUGUCGCAGCCCCUGUCAGAUUCUGGUGAGUCCGCGAAUUCUGCUGUACACCUC [G24A C29U A57G U60C U76C U78C], the self-cleavage was 0.13.

UAACAGGGGGCCACAGCAGAAGCACUCUCGUCGCUGCCCCUGUCAGAUUCUGGUGAAUCUGCGAGUUCUGCUGUAUAUCUC [G24A U25C A28U A35U A65G]: the self-cleavage stood at 0.14.

Turning to UAACAGGGGGCCACAGCAGAAGCAUUCACGUCGCAGCCCCUGUCAGAUUCUGGUGAAUCUGCGGAUUCUGCUGUAUUUCUC [G24A A64G A77U], the self-cleavage came to 0.19.

On to UAACAGGGGGCCACAGCAGAAGCAUUCACGCCGCAGCCCCUGUCAGAUUCUGGUGAAUCUGCGUAUUCUGCUGUAUAUCUC [G24A U31C A64U], for which the self-cleavage turned out to be 0.14.

Take UAACAGGGGGCCACAGCAGAAGCAUACACGUCGCAGCCCCUGUCAGAUUCUGGUGAAUCUGCGACUUCUGCUGUAUAUCUC [G24A U26A A65C]: the self-cleavage is 0.19.

As to UAACAGGGGGCCACAGCAGAAGCAUUCACGACGCAGCCCCUGUCGGAUUCUGGUGAAUCUACGAGUUCUGCUGUAUAUCUC [G24A U31A A45G G61A A65G], the self-cleavage was 0.08.

With UAACAGGGGGCCACAGCAGAAGCAUUCGCGUCGCAGCCCCUGUCAGAUUCCGGUGAAUCUGCGAAUUCUGCUGUAUAUCUC [G24A A28G U51C], the self-cleavage is 0.13.

For UAACAGGGGGCCACAGCAGAAGCAUUCACGUCGCAGCCCCUGUCAGGUUCUGGUGAAUCUGCGACUUCUGCAGUAUAUCUC [G24A A47G A65C U72A], the self-cleavage was 0.07.

Turning to UAACAGGGGGCCACAGCAGAAGCAUUCACGUCGCAGCCCCUGUCAGACUCUGGUGAAUCUGCGAAUUCUGCUGUAUACCUC [G24A U48C U78C], the self-cleavage worked out at 0.11.

Regarding UAACAGGGGGCCACAGCAGAAGCAUUCACGUCGCAGCCCCUGUCUGAUUCUGGUGAAUCUGCGAAUGCUGCUGUAUAUCUC [G24A A45U U67G], the self-cleavage came out at 0.18.

Consider UAACAGGGGGCCACAGCAGAAGCAUUCACGUCGCAGCCCCUGUCAGACUCUGGUGAAUCUGCGAAUCCUGCUGUAUAACUC [G24A U48C U67C U78A], for which the self-cleavage came out at 0.34.

UAACAGGGGGCCACAGCAGAAGCAUCCACGUCGCAGCCCCUGUCAGAUUCUGGUGAAUCUGCGAAUUCUGCUGUGUAUCUC [G24A U26C A75G]: the self-cleavage came out at 0.08.

UAACAGGGGGCCACAGCAGAAGCAUUCACGUCGCAGCCCCUGUCCGAUUCUGGUGAAUCUGCGAAUUCUGCCGUAUAUCUC [G24A A45C U72C]: the self-cleavage amounted to 0.32.

UAACAGGGGGCCACAGCAGAAGCAUUCACGUCGCAGCCCCUGUCAGAUUCUGGUGGAUCCGCGAAUUCUGCUGUAUAUCAC [G24A A56G U60C U80A]: the self-cleavage came to 0.09.

UAACAGGGGGCCACAGCAGAAGCACUCACGUCGCAGCCCCUGUCAGAUUCUGGUAGAUCUGCGAAUUCUGCUGUAUAUCUC [G24A U25C G55A A56G]: the self-cleavage came out at 0.04.

With UAACAGGGGGCCACAGCAGAAGCACUUACGCCGCAGCCCCUGUCAGAUUCUGGUGGAUCCGCGAAUUCUGCUGCAUAUCUC [G24A U25C C27U U31C A56G U60C U74C], the self-cleavage was 0.06.

In the case of UAACAGGGGGCCACAGCAGAAGCACUCACGUCGAAGCCCCAGUCAGAUUCUGGUGAAUCUGCGAAUUCAGCUGUAUAUCUC [G24A U25C C34A U41A U69A], the self-cleavage stood at 0.07.

UAACAGGGGGCCACAGCAGAAGCAUUCACGUCGCGGCCCCUGUCAGAUUCUGGUGAAUCCGCGAACUCUGCUGCAUAUCUG [G24A A35G U60C U66C U74C C81G]: the self-cleavage turned out to be 0.1.

For UAACAGGGGGCCACAGCAGAAGCACUCACGUCGCAGCUCCUGUCAGAUUCUGGUGAGUCUGCGAAUUCUGCUGUAUAUCUC [G24A U25C C38U A57G], the self-cleavage was found to be 0.06.

Turning to UAACAGGGGGCCACAGCAGAAGCAUUCACGACGCAGCCCCUGUCAGAUUGUGGUGAAUCUGCGAAUUCUGCUGUAUAUCUC [G24A U31A C50G], the self-cleavage was determined as 0.13.

In the case of UAACAGGGGGCCACAGCAGAAGCAUUCACGUCGCAGCCCCUGUCAGAUUCUGGUAAAUCUGCGAAUUCUGCUGUAUAUUUC [G24A G55A C79U], the self-cleavage was 0.3.

Consider UAACAGGGGGCCACAGCAGAAGCAUUCACGGCGCAGCCCCUGUCAGAUUCUGGUGAAUCUGCGAAUUCUGCUGUAUGUCUC [G24A U31G A77G], for which the self-cleavage was 0.48.
